Results from the antibiotic and cytotoxicity screens of Wong et al. (2023).
The other results are listed elsewhere or left out.

system: S. aureus RN4220; experiment: growth inhibition call (relative growth <= 0.2); conditions: 50 µM

Growth inhibition call, inactive:
CC(=O)N1CSC[C@H]1C(=O)O
CO[C@@H](CN(C)C(=O)c1ccc2c(c1)OCO2)[C@@H](C)CN([C@H](C)CO)S(=O)(=O)c1ccc(F)cc1
O=C(C[C@H]1C[C@H]2c3cc(NC(=O)Cc4ccncc4)ccc3O[C@H]2[C@H](CO)O1)NCc1cc(F)ccc1F
C[C@@H]1CN([C@@H](C)CO)C(=O)CCCn2cc(nn2)CO[C@H]1CN(C)C(=O)Nc1ccnc(N2CCOCC2)c1
C[C@@H]1CN([C@@H](C)CO)C(=O)c2cccc(NC(=O)Nc3ccc(F)cc3)c2O[C@H]1CN(C)Cc1ccc(C(=O)Nc2ccccc2N)cc1
Cc1ccc(S(=O)(=O)Nc2ccc3c(c2)C(=O)N([C@@H](C)CO)C[C@H](C)[C@@H](CN(C)Cc2ccncc2)OCCCC[C@@H](C)O3)cc1
Cc1ccc(S(=O)(=O)N(C)C[C@H]2Oc3ccc(NC(=O)NC(C)C)cc3CC(=O)N([C@@H](C)CO)C[C@H]2C)cc1
CC(O)CN(CCN(CC(C)O)CC(C)O)CC(C)O (stereo not drawn)
C[C@H](CO)N1C[C@H](C)[C@@H](CN(C)C(=O)Nc2ccc3c(c2)OCO3)Oc2ccc(NC(=O)Nc3cccc4ccccc34)cc2CC1=O
COc1ccc(CNS(=O)(=O)N(C)C)cc1
CC=Cc1ccc(OC)cc1
Cc1noc(C)c1NC(=O)N(C)C[C@@H]1Oc2ccc(NS(=O)(=O)c3c(C)noc3C)cc2C(=O)N([C@H](C)CO)C[C@H]1C
C[C@H](CO)N1C[C@H](C)[C@H](CN(C)S(C)(=O)=O)Oc2ccc(NC(=O)Nc3ccc4c(c3)OCO4)cc2C1=O
C[C@H](CO)N1C[C@H](C)[C@@H](CN(C)S(=O)(=O)c2cn(C)cn2)Oc2ccc(NC(=O)NC3CCCCC3)cc2C1=O
CN1C(=O)c2cc(NC(=O)c3cnccn3)ccc2OC[C@@H]2O[C@@H](CC(=O)N[C@H]3CCN(Cc4ccccc4)C3)CC[C@H]21
O=S(=O)(c1ccccc1)N1CCN(CCO)CC1
C[C@@H]1CCCCO[C@H](CN(C)Cc2ccc(Cl)c(Cl)c2)[C@@H](C)CN([C@H](C)CO)C(=O)c2cc(NC(=O)Nc3ccc4c(c3)OCO4)ccc2O1
C[C@@H]1CN([C@@H](C)CO)S(=O)(=O)c2ccc(C#CC3CCCC3)cc2O[C@@H]1CN(C)Cc1cncnc1
C[C@@H]1CCCCO[C@@H](CN(C)Cc2ccc(C(=O)O)cc2)[C@H](C)CN([C@@H](C)CO)C(=O)c2cc(NC(=O)Nc3ccccc3)ccc2O1
CC(C)CC#Cc1ccc2c(c1)O[C@H](CN(C)C(=O)c1ccccn1)[C@@H](C)CN([C@@H](C)CO)S2(=O)=O
c1cc(CN2CCCNCCNCCCNCC2)ccc1CN1CCCNCCNCCCNCC1
C[C@@H]1CCCCO[C@@H](CN(C)C(=O)Nc2cccc3ccccc23)[C@@H](C)CN([C@@H](C)CO)C(=O)c2cc(NC(=O)Nc3ccc(C(F)(F)F)cc3)ccc2O1
C[C@@H]1CCCCO[C@@H](CN(C)S(=O)(=O)c2ccc(F)cc2)[C@@H](C)CN([C@@H](C)CO)C(=O)c2cc(NS(C)(=O)=O)ccc2O1
COc1ccc(S(=O)(=O)Nc2ccc3c(c2)C(=O)N([C@@H](C)CO)C[C@H](C)[C@@H](CN(C)Cc2ccc4c(c2)OCO4)OCCCC[C@@H](C)O3)cc1
N[C@H](C(=O)O)[C@@H](OCc1ccccc1)C(=O)O
C#CC1(O)CCC2C3CCc4cc(O)ccc4C3CCC21C (stereo not drawn)
Cc1noc(C)c1S(=O)(=O)N(C)C[C@H]1Oc2ccc(NS(=O)(=O)c3cn(C)cn3)cc2C(=O)N([C@@H](C)CO)C[C@H]1C
CCCCCCCC/C=C\CCCCCCCC(=O)O
NC(=O)c1cc2ccccc2oc1=O
C[C@@H]1CN([C@H](C)CO)C(=O)Cc2cc(NC(=O)Cc3ccccc3)ccc2O[C@@H]1CN(C)C(=O)Nc1cccc2ccccc12
COC(=O)[C@H]1[C@H](C(=O)O)[C@@]2(C(=O)Nc3ccc(C#Cc4ccc(OC)cc4)cc32)[C@@H](c2ccccc2)N1C
O=C(O)CCN1CCCCCC1=O
C[C@@H]1CN([C@H](C)CO)C(=O)c2cc(C#CCN(C)C)cnc2O[C@H]1CN(C)S(C)(=O)=O
